Among the data in the RNAGym collection of RNA variant scans (doi:10.1093/nar/gkz1192) are self-cleavage values, retold here.

B1: CPEB3 Ribozyme (parent)
chain: UAACAGGGGGCCACAGCAGAAGCGUUCACGUCGCAGCCCCUGUCAGAUUCUGGUGAAUCUGCGAAUUCUGCUGUAUAUCUC

Read counts are not given, so values of variants with three or more changes are uncertain.

Variants of B1 are the subject of this series. Description: self-cleavage, relative activity (ratio to wild type); higher = more cleavage; in vitro, sequencing. In a few lines:
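For each CPEB3 ribozyme variant, relative activity is its cleaved/total read fraction divided by the unmutated ribozyme's. Barcoded error-prone PCR libraries were transcribed by T7 RNA polymerase (5 hours, 37°C) and held in DNase I for 15 min before an EDTA stop, with cleavage occurring throughout. Template-switching reverse transcription and Illumina sequencing were used to read the RNAs. A 5-read minimum applied, and results are the mean of three batches.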
With A56G G63C U72C, the self-cleavage was determined as 1.17.
Next, U60C C62U U69A U80C: 0.36; U60C C79A U80C: 0.85; U54G U58A U60A: 0.17.
Next, U54A A56G A77U: 0.9.
Regarding U54A U66C G73A, the self-cleavage stood at 1.14.
As for U54C U58A A64G A77G, the figure is 0.19; as for U51C U54C U66C, 0.44.
As for U51C U54C C71A, the figure is 0.38.
Next, U60A U72C A75G: 0.45.
As to U51C U60C C62A C71A, the self-cleavage worked out at 0.28.
As for U54C A64U U72C, the figure is 0.42; as for A56G A57G C71A U72A, 0.2; as for U54C A56G A57G U78C, 0.18.
Next, U51C U60C C62U: 0.24; G52C U60C U76A A77G: 0.3; A56U U60A U69A: 0.4.
As for A56G U67C U72C, the figure is 0.33; as for A57G A64G U67C, 0.31.
U51C U58C A65G U72C: the self-cleavage turned out to be 0.32.
As for U51C G63A U67C U69C, the figure is 0.49; as for U58C C59U U69A, 0.17.
For G53U U54C C62U, the self-cleavage stood at 0.16.
Next, U51C U54A U67C: 0.89; A56G A57G U72C U74A: 0.62.
Next, U60C U69C U80A: 0.45; A56G U60C U66C G70U: 0.21.
Regarding U58C U74A U78C, the self-cleavage was determined as 0.53.
On to U51C U54A U60A, for which the self-cleavage is 0.57.
Next, G52U U60C U72C A75G: 0.49; U54G U60C U69C U72C A77U: 0.4.
In the case of A56G U60A U72C, the self-cleavage is 0.29.
As for U58A U60A G63C, the figure is 0.16; as for U54C A65U C71U, 0.18; as for A56G U60C U67C, 0.07.
As for U51G A56U U72C U78C, the figure is 0.49; as for G55A C59U U67C, 0.15.
As for U60A U66A U72A, the self-cleavage was found to be 0.43.
As for A56U U67G U74C, the self-cleavage was 0.3.
As for U60A U72C U80C, the figure is 0.76; as for A56G A64G A77U, 0.72; as for A56U U58C U69C, 0.16.
With A57G U58C U72C, the self-cleavage is 0.47.
Next, U54A G61C A64G U72C: 0.18; U54G A65G C71U U72C: 0.33.
As for A57G A64G U67C U72A U78A, the figure is 0.29; as for G53A U74C A75U, 1.22; as for U58C A77G U80A, 0.74.
Next, U60A A64G U78A: 0.51.
U51C U54C U78C: the self-cleavage was determined as 1.08.
As for U51C U54G C62G, the figure is 0.26.
In the case of U54C U67C U72C A75G, the self-cleavage was 0.18.
For the variant U60C A64G U69A, the self-cleavage worked out at 0.66.
As for U54C U69C U72C U80A, the figure is 0.48; as for A56U U66C U72C, 0.16.
In the case of U54G U72A U74A, the self-cleavage came out at 0.71.
Take G52U U69C U80C: the self-cleavage stood at 0.5.
As for U54C U76C A77G, the figure is 0.97; as for U54G U58C U67C C68U U74C, 0.14.
Next, U51C U66C U72C U76A: 0.61; U51C U54A U72A: 0.99.
Next, A56G U74C C79A U80C: 0.86; A56U U76A U80C: 0.94.
As to A57U U72A U76A, the self-cleavage is 0.42.
Next, A57G U76C A77G: 0.86; A57U U60A U80A: 0.28.
As for G53C U60C U78C, the figure is 0.66; as for A56U C59A U69C U80C, 0.17.
Next, A56U U72C U78C: 0.89; U54G U58A U60A U69A U74C: 0.2.
In the case of A57G G70U U74C, the self-cleavage was 0.2.
As for U51C U72C U76G, the figure is 1.18; as for A56G U67C U78C, 0.39; as for A56U U72C A75G, 0.85.
Next, U54C A56C A64G: 0.11; U54C U60A U69C A75C: 0.19.
As for U60A G73C U78C, the figure is 1.08.
For A56G A65G U78C, the self-cleavage was found to be 0.31.
As for U54C A64G G73A, the figure is 1.29; as for U54C C62A A64G, 0.6; as for A57G U72G U76A, 1.06.
U54C U60C U78C: the self-cleavage turned out to be 0.35.
On to C59U U78C C79A, for which the self-cleavage came to 1.17.
Next, U54C G63C C71G U72C U80C: 0.22.
Next, U54C U58C C59A C68A: 0.3; U54A A56G U60A: 0.59.
As for U58C G63U U72C, the figure is 0.36.
For the variant G53U U60C G63A, the self-cleavage was determined as 0.56.
On to U54G G61A A64U, for which the self-cleavage worked out at 0.41.
As for A57C U60A G61A U72C, the self-cleavage turned out to be 0.16.
As for U54C U66C G70A U78C, the figure is 0.2; as for U51C U58C U60A, 0.22; as for U58C A65G U67A, 0.21.
Next, U58C U60C A75G: 0.12.
For the variant U54C A75U U78A, the self-cleavage stood at 0.88.
As for U51G U60A U80A, the figure is 0.67; as for U60A U69C U78A, 0.3.
As for A57G U67C U72G, the figure is 0.51; as for A57G U74C U76C, 1.22; as for A56G U76C U80A, 1.1.
As for U54C U60C U72C, the figure is 0.3; as for U54C A65U C68U, 0.18.
Consider U54G U66C U72C, for which the self-cleavage was determined as 0.37.
As for U54C U60G U76C, the figure is 0.32; as for A56G U58C U80A, 0.53; as for A56U A57C U67C, 0.23.
Next, A56G U60A A65G: 0.24; U60A U66A U74A: 0.35; U54A C71U U78C: 0.7.
As to U60A C62G U69C, the self-cleavage turned out to be 0.25.
As for U51C U54A A77G, the figure is 1.15; as for U58C C68A U69C U80A, 0.21; as for U51C U67C U78A, 0.41.
Regarding U51C U66C U72A, the self-cleavage is 0.37.
As for U58A U69C U80C, the figure is 0.35; as for U51C G73A U78C C81U, 1.32; as for G52A A56G A64G A75G, 0.6.
Next, U54C C68A C71G: 0.15; A56U C59U U72C A77U: 0.26; A57G A64G U69C: 0.42.
As for U60C A64G U78C, the figure is 0.33; as for A57G U69C U74A, 0.63.
On to U54A U66C C71A U78C, for which the self-cleavage turned out to be 0.46.
Next, A56G U60C A77G: 0.31; G52A U69C U80A: 0.71.
With G55A A77G U78A, the self-cleavage stood at 0.46.
As for G52C U54C U60C, the figure is 0.51.
For the variant U51C G53A U58A A64U, the self-cleavage came to 0.29.
In the case of U54A A65G U66A, the self-cleavage was 0.19.
As for A56U U76A A77G, the figure is 0.76.
As for U51C G52U U66C, the figure is 0.66; as for A57C A65G A75U U76A U80C, 0.11; as for A57G A64G A75G, 0.48.
U54C U60A C62U: the self-cleavage stood at 0.48.
As to A57G U67C A77G, the self-cleavage came to 0.27.
As for U51G A64U U76A A77G, the figure is 0.22; as for U58C U60C U67C, 0.22.
Next, U60C A65G U74A: 0.34.
Next, A57G U67C U69A: 0.37; G55A A57U A64G: 0.31.
Turning to A57U U67A U69C, the self-cleavage is 0.16.
Next, U51C U69A U78C: 0.92; U54A G61U C62G U67C: 0.61; A57G U72G G73C: 1.16.
Next, A57G U72G G73A: 1.17.
As for U54A U66A U80C, the figure is 0.63; as for U54C C62A U80A, 0.16; as for A56U C62U A64G, 0.18.
With U51G U54C U67C, the self-cleavage came out at 0.22.
A56G A64G U66A: the self-cleavage worked out at 0.21.
As for G52C A56U G63A, the figure is 0.87; as for G53A U60C G63A, 0.75; as for U54C C68A U80C, 0.41.
Next, G55A A57G U67A U69C: 0.18; A57G A77C U78C: 0.86; A57G U60C U80A: 0.8.
Take A57G U60C U80C: the self-cleavage worked out at 0.58.
On to U60A U69C U74C, for which the self-cleavage stood at 0.38.
As for U51C U54C A64U U72C, the figure is 0.52.
Next, U54C A64U U66C: 0.25; U60A U67C U72G: 0.31; A56U C62U A64U U74G: 0.17.
With G52U A57G U72A U74C, the self-cleavage is 1.28.
With A56U U58A U72C A75G, the self-cleavage was determined as 0.16.
Next, C59A U69C U78A: 0.23; U60A U67C U80C: 0.36; U54C U67A A77U: 0.52.
